Reference: ChEMBL document CHEMBL1201862, “PubChem BioAssay data set” (2004)

test system: NCI-H322M; assay: NCI-60 cell line screen, 48 h

`Nc1ncnc2c1ncn2C1OC(CO)C(O)C1N` (stereo not drawn) was tested. Which GI50 did it give?
The GI50 was inactive: > 100 µM.

With `COc1ccc2c(Cc3c4ccccc4cc4ccccc34)cncc2c1O` as the compound, how does the GI50 read?
Its GI50 is inactive: 7.13 µM.

For `C[Si](C)(C)C#Cc1cc(-c2nc3ccccc3s2)ccc1N`, which GI50 is on record?
The GI50 was inactive: 14.4 µM.

How did the GI50 turn out when `O=C1c2ccccc2C(=O)c2c(Nc3cc4c5c(ccc6c7ccc8c9c(cc(Nc%10cccc%11c%10C(=O)c%10ccccc%10C%11=O)c(c3c56)c97)-c3ccccc3C8=O)C(=O)c3ccccc3-4)cccc21` was run?
The GI50 was inactive: 78.3 µM.

`O=C(O)CCSCc1ccc(I)cc1` was tested. Which GI50 did it give?
Its GI50 is inactive: > 100 µM.

`Cn1c2ccccc2c2ccc3c(c21)C(=O)C=CC3=O` was tested. Which GI50 did it give?
Its GI50 is inactive: 23.3 µM.

How did the GI50 turn out when `COc1ccc2c(c1)-c1nn(CCN(C)C)c3ccc(C(=O)NCCCN(C)CCCNC(=O)c4ccc5c6c(c7cc(OC)ccc7nc46)NN5CCN(C)C)c(c13)N2` was run?
The GI50 was active: < 0.01 µM.

For `Oc1c(OCc2nnc(CCCCCCCCc3nnc(COc4ccc5ccccc5c4O)n3Nc3ccccc3)n2Nc2ccccc2)ccc2ccccc12`, which GI50 is on record?
The GI50 was inactive: 16 µM.

For `C#CC1(O)CC(c2ccccc2)N(C)C(c2ccccc2)C1` (stereo not drawn), which GI50 is on record?
The GI50 was inactive: > 100 µM.

How did the GI50 turn out when `C#C[C@]1(O)CC[C@H]2[C@@H]3CCC4=C/C(=N/OC(=O)c5cccc6c(=O)c7ccccc7[nH]c56)CC[C@@H]4[C@H]3CC[C@@]21C` was run?
The GI50 was inactive: 99.8 µM.

`CN1c2ccccc2S(=O)(=O)n2c(COc3ccc(Cl)cc3)nnc21` was tested. Which GI50 did it give?
The GI50 was inactive: > 100 µM.

With `CC(C)(C)OC(=O)NC1CCCCC1NC(=O)C(=O)NC1CCCCC1NC(=O)OC(C)(C)C` (stereo not drawn) as the compound, how does the GI50 read?
The GI50 was inactive: > 100 µM.

Which GI50 does the source give for `Cc1cc(N(CCC#N)CCC#N)ccc1/C=C(\NC(=O)/C=C/c1ccccc1)NC(=O)Nc1ccccc1C` here?
The GI50 was inactive: > 100 µM.

`O=c1[nH]nc(-c2ccccc2)n1/N=C/c1ccccc1Cl` was tested. Which GI50 did it give?
Its GI50 is inactive: 42.8 µM.

With `N/C(=N\c1ccc(Cl)cc1)NS(=O)(=O)c1c(C(F)(F)F)cccc1C(F)(F)F` as the compound, how does the GI50 read?
Its GI50 is inactive: 16.3 µM.

For `c1ccc(COc2ccc(C[P+](c3ccccc3)(c3ccccc3)c3ccccc3)cc2)cc1`, which GI50 is on record?
Its GI50 is inactive: 2.05 µM.

For `COC(=O)/C(=C\Nc1cccc(C)n1)S(=O)(=O)c1ccc(C)cc1`, which GI50 is on record?
Its GI50 is inactive: > 100 µM.

For `COI1NC(=O)c2ccccc21`, which GI50 is on record?
The GI50 was inactive: > 100 µM.

With `Cc1ccc(C2=Nc3cccc4cccc(c34)N2)cc1` as the compound, how does the GI50 read?
Its GI50 is inactive: > 100 µM.

For `Cc1ccc(C(C)(C)C[P+](C)(c2ccccc2)c2ccccc2)cc1`, which GI50 is on record?
Its GI50 is inactive: 21.2 µM.

`N#CI1OC(=O)c2ccccc21` was tested. Which GI50 did it give?
The GI50 was inactive: > 100 µM.

Which GI50 does the source give for `COC(O)C(=O)c1c2c(cc3c1CCC3)CCCC2` (stereo not drawn) here?
Its GI50 is inactive: 10.4 µM.

`CC(C)O/C=C1\C(=O)C2(SCCS2)[C@H]2CCCC[C@@H]12` was tested. Which GI50 did it give?
The GI50 was inactive: 38.1 µM.

For `O=C1C[C@H](c2ccc(O)c(O)c2)Oc2cc(O)cc(O)c21`, which GI50 is on record?
The GI50 was inactive: > 100 µM.

For `O=C(O)c1[nH]c(=O)[nH]c(=O)c1CN1CCCCC1`, which GI50 is on record?
Its GI50 is inactive: > 100 µM.

Which GI50 does the source give for `COC(=O)C(CCCCN)NC(=O)C(CCCCN)NC(C)=O.Cc1ccc(C(=O)Nc2ccc(S(=O)(=O)O)c3cc(S(=O)(=O)O)cc(S(=O)(=O)O)c23)cc1NC(=O)c1cccc(NC(=O)Nc2cccc(C(=O)Nc3cc(C(=O)Nc4ccc(S(=O)(=O)O)c5cc(S(=O)(=O)O)cc(S(=O)(=O)O)c45)ccc3C)c2)c1` here?
The GI50 was inactive: > 50 µM.

How did the GI50 turn out when `CCCCCCNC(=O)C1=C(C)NC(C)=C(C(=O)NCCCCCC)C1` was run?
The GI50 was inactive: > 100 µM.

How did the GI50 turn out when `CC(=O)Nc1nnc(S(=O)(=O)NC(=S)Nc2ccc(Cl)cc2)s1` was run?
Its GI50 is inactive: > 100 µM.

`O=c1oc(-c2ccc(O)cc2)cc2cc(O)ccc12` was tested. Which GI50 did it give?
The GI50 was inactive: 26.5 µM.

With `CCOc1ccc(NC(=O)C(=O)C(/C(=N/N)C(=O)OC)c2nc3ccc([N+](=O)[O-])cc3nc2O)cc1` (stereo not drawn) as the compound, how does the GI50 read?
Its GI50 is inactive: > 100 µM.

With `CS(=O)(=O)O.[Ag]` as the compound, how does the GI50 read?
The GI50 was inactive: 17.1 µM.

`C/C(=N/NC(=O)c1ccncc1)C(F)(F)F` was tested. Which GI50 did it give?
Its GI50 is inactive: > 100 µM.

Which GI50 does the source give for `Oc1nc(-c2ccccc2)cc(-c2ccccc2O)n1` here?
Its GI50 is inactive: > 100 µM.

For `COc1ccc(/C=C2/CSCC3=C2N=C(S)NC3c2ccc(OC)c(OC)c2OC)c(OC)c1OC` (stereo not drawn), which GI50 is on record?
Its GI50 is inactive: 21.2 µM.

`Cc1sc2nc(-c3cccc([N+](=O)[O-])c3)c(/C=N/N=C(N)N)n2c1C` was tested. Which GI50 did it give?
Its GI50 is inactive: 1.57 µM.

Which GI50 does the source give for `Cc1cccc2c1CC1(Cc3c(C)cccc3C1=O)C2=O` here?
The GI50 was inactive: > 100 µM.

With `O=C(Nc1ccc(Cl)c(Cl)c1)C(=O)C(C(=O)c1ccccc1-c1ccccc1)C1OC(=O)c2ccccc21` (stereo not drawn) as the compound, how does the GI50 read?
The GI50 was inactive: 13.6 µM.

`COc1ccc(C(=O)C(c2ccc(OC)cc2)C2(O)C(=O)Nc3c(C)cc(Cl)cc32)cc1` (stereo not drawn) was tested. Which GI50 did it give?
Its GI50 is inactive: > 100 µM.

`COc1nc2c(N3CCCC3)nc(N3CCNCC3)nc2nc1NCc1ccccc1` was tested. Which GI50 did it give?
The GI50 was inactive: 2.92 µM.

For `Cc1cccc2c1NC(=O)/C2=N\Nc1ccccc1[N+](=O)[O-]`, which GI50 is on record?
Its GI50 is inactive: 13.2 µM.

With `CCC(=O)Nc1ccc(NS(=O)(=O)c2ccc(Cl)cc2)cc1` as the compound, how does the GI50 read?
The GI50 was inactive: > 100 µM.

Which GI50 does the source give for `O=c1[nH]ncc2[nH]c3c4ccccc4ccc3c12` here?
Its GI50 is inactive: 29.4 µM.

`O=P(c1ccccc1)(c1ccccc1)C1CC=C(c2ccccc2)C2(CCCC2)C1` (stereo not drawn) was tested. Which GI50 did it give?
Its GI50 is inactive: 31.3 µM.

Which GI50 does the source give for `Cc1nc(Nc2ccccc2)sc1C(=O)NNC(N)=O` here?
Its GI50 is inactive: > 100 µM.

For `CN(C)CCNC(=O)c1cccc2c1Nc1ccccc1S2`, which GI50 is on record?
Its GI50 is inactive: 14.3 µM.

`O=c1cc(-c2ccccc2)[nH]c2cc(Cl)cc(Cl)c12` was tested. Which GI50 did it give?
Its GI50 is inactive: 58.6 µM.

`CN(C)CC1CCC/C(=C\c2ccc(Cl)cc2)C1=O` (stereo not drawn) was tested. Which GI50 did it give?
Its GI50 is inactive: 15.2 µM.

With `CCOc1ccc(NC(=O)C(=O)CC(=O)c2c[n+]([O-])c3cc(C)c(C)cc3[n+]2[O-])cc1` as the compound, how does the GI50 read?
Its GI50 is inactive: > 100 µM.

How did the GI50 turn out when `Cc1ccc(/C=C2\CN(C)CC3=C2N=C(S)NC3c2ccc(C)cc2)cc1` (stereo not drawn) was run?
The GI50 was inactive: 56.5 µM.

`C/C=C/C(=O)Oc1cccc2cccnc12` was tested. Which GI50 did it give?
The GI50 was inactive: 25.5 µM.

How did the GI50 turn out when `Cn1c2ccccc2c2ccc3c(c21)C(=O)C(c1ccccc1)=CC3=O` was run?
The GI50 was inactive: 30.9 µM.

For `FC(F)(F)c1ccc(Cc2nc3cc4ccccc4cc3[nH]2)cc1`, which GI50 is on record?
The GI50 was inactive: > 100 µM.

With `CC(=O)Nc1ccccc1-c1cnc2ccccc2n1` as the compound, how does the GI50 read?
Its GI50 is inactive: > 100 µM.

`OCc1ccc2c(c1)CC1(C2)Cc2cc3c(cc2C1)CCC3` was tested. Which GI50 did it give?
The GI50 was inactive: 6.75 µM.

How did the GI50 turn out when `CC(/C=C/C=C/C=C/C=C/C=C/C(=O)C1=C(O)C(CCC(=O)O)N(C)C1=O)=C\C(C)C(OC1CC(O)C(O)C(C)O1)C(C)C` (stereo not drawn) was run?
Its GI50 is inactive: 2.63 µM.

With `O=S(=O)(O)c1ccc2cccc(/N=N\c3c(O)ccc4ccccc34)c2c1` as the compound, how does the GI50 read?
Its GI50 is inactive: > 100 µM.

How did the GI50 turn out when `CC(NNC(=O)c1cc[n+]([BH2-]C#N)cc1)c1cccc(C(F)(F)F)c1` (stereo not drawn) was run?
Its GI50 is inactive: > 100 µM.

`C=C1C(=O)C23CC1C[C@H](OC(C)=O)C2C1(C)C(OC(C)=O)C[C@H](O)C(C)(C)[C@H]1C(O)[C@@H]3OC(C)=O` (stereo partly drawn) was tested. Which GI50 did it give?
The GI50 was inactive: 19.6 µM.

`CC1CCCC2(O1)OC1CC(=O)OC1C1=C2C(=O)c2ccccc2C1=O` (stereo not drawn) was tested. Which GI50 did it give?
The GI50 was inactive: 16.2 µM.

With `Nc1nc(N)c2cc(S(=O)(=O)c3ccc4ccccc4c3)ccc2n1` as the compound, how does the GI50 read?
Its GI50 is inactive: 23.8 µM.

`CCOCC(=O)N[C@H]1CCc2cc(OC)c(OC)c(OC)c2-c2ccc(OC)c(=O)cc21` was tested. Which GI50 did it give?
Its GI50 is active: 0.0209 µM.

How did the GI50 turn out when `CCOC(=O)Nc1ccc(S(=O)(=O)OC)cc1.CCOC(=O)Nc1ccc(S(=O)(=O)OC)cc1.NC(=O)NCCO` was run?
The GI50 was inactive: > 50 µM.

For `CC(=O)OC1CCC2(C)C3CCC4(C)C(c5ccc(=O)oc5)CC5OC54C3CCC2(O)C1` (stereo not drawn), which GI50 is on record?
The GI50 was active: 0.838 µM.

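In this assay, cells in 96-well plates receive the compound at five concentrations for 48 hours. Endpoints are linearly interpolated between the surrounding concentrations. GI50 = concentration required for 50% inhibition of growth.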 Activity calls are given as the source filed them. No stated cut-off is given here; in the data, active = GI50 up to about 1.1 µM and inactive = higher.
